Source: patent US11198713B2, “Agents modulating beta-catenin functions and methods thereof” (FOG PHARMACEUTICALS, INC., priority 2017, dated 2021)
Part of at least one peptide drawing is inferred or uncertain, most often the ends.

Test system: TCF/LEF Luciferase reporter HEK293 cell lines
Assay: TCF/LEF reporter assay
Format: cell-based
Details: 10 μM; for TCF/LEF Reporter Inhibition at 10 μM: Table 2; for Beta-Catenin Luciferase Reporter % Inhibition at 10 μM: Table 3 Part A
Procedure: FIG. 2. […] FIG. 2 depicts exemplary data from TCF/LEF reporter assays. Y-axes illustrate luminescence, and X-axes illustrate concentrations of peptides. […] TCF/LEF Luciferase reporter HEK293 cell lines (BPS Bioscience) were treated with dilution series of FP0025c and FP00217c Isomer 2 for 18 hours. 300 ng/mL of Wnt3a (Peprotech) was added to the cells for the final 6 hours of incubation. Luciferase activity was measured using Bright-Glo Luciferase Assay (Promega) according to manufacturer's protocol.
In some embodiments, a provided assay is a TCF/LEF reporter assay. In some embodiments, in an exemplary such assay, TCF/LEF Luciferase reporter HEK293 cell lines (BPS Bioscience) were treated with dilution series of provided peptides for 18 hours. 300 ng/mL of Wnt3a (Peprotech) was added to the cells for the final 6 hours of incubation. Luciferase activity was measured using Bright-Glo Luciferase Assay (Promega) according to manufacturer's protocol. […] Applicant also notes that teachings of the present disclosure are not restricted to a particular mechanism of action of described agents.

CC[C@H](C)[C@@H]1NC(=O)[C@](C)(NC(=O)[C@H](C)NC(=O)[C@@H]2CCCN2C(C)=O)CCCC=CCCCCCC[C@@](C)(C(=O)N[C@@H](CCCNC(=N)N)C(=O)N[C@H](C(=O)N[C@@H](Cc2c[nH]c3ccccc23)C(N)=O)C(C)C)NC(=O)[C@H](C(C)C)NC(=O)[C@H](Cc2c[nH]cn2)NC(=O)[C@H](C)NC(=O)[C@H](CC(=O)O)NC(=O)[C@H](CC(C)C)NC1=O (single isomer, unassigned) [FP0212s Isomer 2, Ac-P-A-R5-I-L-D-A-H-V-S8-R-V-W-NH2]
TCF/LEF Reporter Inhibition at 10 μM: 35%

CC[C@H](C)[C@@H]1NC(=O)[C@H](Cc2c[nH]cn2)NC(=O)[C@H](C)NC(=O)[C@H](CC(=O)O)NC(=O)[C@H](CC(C)C)NC(=O)[C@H]([C@@H](C)CC)NC(=O)[C@](C)(NC(=O)[C@H](C)NC(C)=O)CN(C)C(=O)OCC=CCCCCCC[C@@](C)(C(=O)N[C@@H](CCCNC(=N)N)C(=O)N[C@H](C(=O)N[C@@H](Cc2c[nH]c3ccccc23)C(N)=O)C(C)C)NC1=O (single isomer, unassigned) [FP0335c Isomer 1, Ac-A-ME-I-L-D-A-H-I-S8-R-V-W-NH2]
TCF/LEF Reporter Inhibition at 10 μM: 22%
Beta-Catenin Luciferase Reporter % Inhibition at 10 μM: 22% (Isomer 1)

CC[C@H](C)[C@@H]1NC(=O)[C@H](Cc2c[nH]cn2)NC(=O)[C@H](C)NC(=O)[C@H](CC(=O)O)NC(=O)[C@H](CC(C)C)NC(=O)[C@H]([C@@H](C)CC)NC(=O)[C@](C)(NC(=O)[C@H](C)NC(C)=O)CN(C)C(=O)OCC=CCCCCCC[C@@](C)(C(=O)N[C@@H](CCCNC(=N)N)C(=O)N[C@H](C(=O)N[C@@H](Cc2c[nH]c3ccccc23)C(N)=O)C(C)C)NC1=O (single isomer, unassigned) [FP0335c Isomer 2, Ac-A-ME-I-L-D-A-H-I-S8-R-V-W-NH2]
TCF/LEF Reporter Inhibition at 10 μM: 37%
Beta-Catenin Luciferase Reporter % Inhibition at 10 μM: 37% (Isomer 2)

CC[C@H](C)[C@@H]1NC(=O)[C@H](Cc2c[nH]cn2)NC(=O)[C@H](C)NC(=O)[C@H](CC(=O)O)NC(=O)[C@H](CC(C)C)NC(=O)[C@H]([C@@H](C)CC)NC(=O)[C@](C)(NC(=O)[C@H](C)NC(C)=O)CCCCC=CCOC(=O)N(C)CC[C@@](C)(C(=O)N[C@@H](CCCNC(=N)N)C(=O)N[C@H](C(=O)N[C@@H](Cc2c[nH]c3ccccc23)C(N)=O)C(C)C)NC1=O (single isomer, unassigned) [FP0502c Isomer 1, Ac-A-R6-I-L-D-A-H-I-MF-R-V-W-NH2]
TCF/LEF Reporter Inhibition at 10 μM: 20%

CC[C@H](C)[C@@H]1NC(=O)[C@H](Cc2c[nH]cn2)NC(=O)[C@H](C)NC(=O)[C@H](CC(=O)O)NC(=O)[C@H](CC(C)C)NC(=O)[C@H]([C@@H](C)CC)NC(=O)[C@](C)(NC(=O)[C@H](C)NC(C)=O)CCCCC=CCOC(=O)N(C)CC[C@@](C)(C(=O)N[C@@H](CCCNC(=N)N)C(=O)N[C@H](C(=O)N[C@@H](Cc2c[nH]c3ccccc23)C(N)=O)C(C)C)NC1=O (single isomer, unassigned) [FP0502c Isomer 2, Ac-A-R6-I-L-D-A-H-I-MF-R-V-W-NH2]
TCF/LEF Reporter Inhibition at 10 μM: 27%

CC[C@H](C)[C@@H]1NC(=O)[C@H](Cc2c[nH]cn2)NC(=O)[C@H](C)NC(=O)[C@H](CC(=O)O)NC(=O)[C@H](CC(C)C)NC(=O)[C@H]([C@@H](C)CC)NC(=O)[C@](C)(NC(=O)[C@H](C)NC(C)=O)CCCCC=CCOC(=O)N(C)CC[C@@](C)(C(=O)N[C@@H](CCCNC(=N)N)C(=O)N[C@H](C(=O)N[C@@H](Cc2c[nH]c3ccccc23)C(N)=O)C(C)C)NC1=O (single isomer, unassigned) [FP0502c Peak 1]
Beta-Catenin Luciferase Reporter % Inhibition at 10 μM: 20% (Peak 1)

CC[C@H](C)[C@@H]1NC(=O)[C@H](Cc2c[nH]cn2)NC(=O)[C@H](C)NC(=O)[C@H](CC(=O)O)NC(=O)[C@H](CC(C)C)NC(=O)[C@H]([C@@H](C)CC)NC(=O)[C@](C)(NC(=O)[C@H](C)NC(C)=O)CCCCC=CCOC(=O)N(C)CC[C@@](C)(C(=O)N[C@@H](CCCNC(=N)N)C(=O)N[C@H](C(=O)N[C@@H](Cc2c[nH]c3ccccc23)C(N)=O)C(C)C)NC1=O (single isomer, unassigned) [FP0502c Peak 2]
Beta-Catenin Luciferase Reporter % Inhibition at 10 μM: 27% (Peak 2)

CC[C@H](C)[C@@H]1NC(=O)[C@H](Cc2c[nH]cn2)NC(=O)[C@H](C)NC(=O)[C@H](CC(=O)O)NC(=O)[C@H](CC(C)C)NC(=O)[C@H]([C@@H](C)CC)NC(=O)[C@](C)(NC(=O)[C@H](C)NC(C)=O)CCCC=CCOC(=O)N(C)CCC[C@@](C)(C(=O)N[C@@H](CCCNC(=N)N)C(=O)N[C@H](C(=O)N[C@@H](Cc2c[nH]c3ccccc23)C(N)=O)C(C)C)NC1=O (single isomer, unassigned) [FP0510c Isomer 1, Ac-A-R5-I-L-D-A-H-I-MH-R-V-W-NH2]
Beta-Catenin Luciferase Reporter % Inhibition at 10 μM: 22% (Isomer 1)

CC[C@H](C)[C@@H]1NC(=O)[C@H](Cc2c[nH]cn2)NC(=O)[C@H](C)NC(=O)[C@H](CC(=O)O)NC(=O)[C@H](CC(C)C)NC(=O)[C@H]([C@@H](C)CC)NC(=O)[C@](C)(NC(=O)[C@H](C)NC(C)=O)CCCC=CCOC(=O)N(C)CCC[C@@](C)(C(=O)N[C@@H](CCCNC(=N)N)C(=O)N[C@H](C(=O)N[C@@H](Cc2c[nH]c3ccccc23)C(N)=O)C(C)C)NC1=O (single isomer, unassigned) [FP0510c Isomer 2, Ac-A-R5-I-L-D-A-H-I-MH-R-V-W-NH2]
Beta-Catenin Luciferase Reporter % Inhibition at 10 μM: 33% (Isomer 2)

CC[C@H](C)[C@@H]1NC(=O)[C@H](Cc2c[nH]cn2)NC(=O)[C@H](C)NC(=O)[C@H](CC(=O)O)NC(=O)[C@H](CC(C)C)NC(=O)[C@H]([C@@H](C)CC)NC(=O)[C@](C)(NC(=O)[C@H](C)NC(C)=O)CCCCC=CCOC(=O)N(C)CCC[C@@](C)(C(=O)N[C@@H](CCCNC(=N)N)C(=O)N[C@H](C(=O)N[C@@H](Cc2c[nH]c3ccccc23)C(N)=O)C(C)C)NC1=O (single isomer, unassigned) [FP0511c Isomer 1, Ac-A-R6-I-L-D-A-H-I-MH-R-V-W-NH2]
Beta-Catenin Luciferase Reporter % Inhibition at 10 μM: 17% (Isomer 1)

CC[C@H](C)[C@@H]1NC(=O)[C@H](Cc2c[nH]cn2)NC(=O)[C@H](C)NC(=O)[C@H](CC(=O)O)NC(=O)[C@H](CC(C)C)NC(=O)[C@H]([C@@H](C)CC)NC(=O)[C@](C)(NC(=O)[C@H](C)NC(C)=O)CCCCC=CCOC(=O)N(C)CCC[C@@](C)(C(=O)N[C@@H](CCCNC(=N)N)C(=O)N[C@H](C(=O)N[C@@H](Cc2c[nH]c3ccccc23)C(N)=O)C(C)C)NC1=O (single isomer, unassigned) [FP0511c Isomer 2, Ac-A-R6-I-L-D-A-H-I-MH-R-V-W-NH2]
Beta-Catenin Luciferase Reporter % Inhibition at 10 μM: 18% (Isomer 2)

CC[C@H](C)[C@@H]1NC(=O)[C@H](Cc2ccccn2)NC(=O)[C@H](C)NC(=O)[C@H](CC(=O)O)NC(=O)[C@H](CC(C)C)NC(=O)[C@H]([C@@H](C)CC)NC(=O)[C@](C)(NC(=O)[C@H](C)NC(C)=O)CCCCCCC=CCOC(=O)N2CC[C@@](C(=O)N[C@@H](CCCNC(=N)N)C(=O)N[C@H](C(=O)N[C@@H](Cc3c[nH]c4ccccc34)C(N)=O)C(C)C)(C2)NC1=O (single isomer, unassigned) [FP0539c Isomer 1, Ac-A-R8-I-L-D-A-2pyr-I-MB-R-V-W-NH2]
TCF/LEF Reporter Inhibition at 10 μM: 52%
